Drawing on the supplement of paper PMC11880418, this text covers ALDHbr for five molecules.

Each structure is given as a SMILES string. Counter-ions that a name gives are not always drawn. Some of the results follow. The data scatter; read single values as rough.

Some test systems named below: MKN45; PANC1; SUM159; T84.
What all share (assay): ALDHbr (CSC) cell proportion score relative to DMSO vehicle (ratio to DMSO); breast (SUM159) / gastric (MKN45) / pancreatic (PANC1) / colon cancer lines; ALDHbr cells have high ALDH activity and are rich in cancer stem cells (CSC); higher = more CSC (ALDHbr) cells remaining
What all share (details): 10 µM; 72 h
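Further: High-content imaging of ALDEFLUOR-stained cells with Hoechst-labelled nuclei in 384-well plates, triplicate wells, scored as Z-score against 0.1% DMSO vehicle, negative meaning fewer ALDHbr cells.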

Turning to `COc1cc(C(=O)NCc2ccc(OCCN(C)C)cc2)cc(OC)c1OC` [Trimethobenzamide hydrochloride], the ALDHbr in the test on MKN45 worked out at 1.27; in the test with PANC1, 0.708; in the test on SUM159, 0.898; with T84 it was 0.858.
For the molecule `CC[C@H](C)C(=O)O[C@H]1C[C@@H](C)C=C2C=C[C@H](C)[C@H](CC[C@@H]3C[C@@H](O)CC(=O)O3)[C@H]21` [Lovastatin], the ALDHbr in the test with MKN45 amounted to 0.47; in the test with PANC1, 1.45; in the test with SUM159, 0.453; with T84, 0.794.
In the case of `CCCc1cc(C(N)=S)ccn1` [Prothionamide], the ALDHbr with MKN45 is 0.981; in the test on PANC1 it was 0.94; in the test on SUM159, 0.988; in the test with T84, 0.731.
`CO/N=C(\C(=O)N[C@@H]1C(=O)N2C(C(=O)O)=C(C[N+]3(C)CCCC3)CS[C@H]12)c1csc(N)n1` [Cefepime hydrochloride]: the ALDHbr in the test with MKN45 amounted to 0.985; with PANC1 it was 0.872; in the test on SUM159 it was 0.925; with T84, 0.995.
As to `C[C@@H]1C[C@H]2[C@@H]3C[C@H](F)C4=CC(=O)C=C[C@]4(C)[C@@]3(Cl)[C@@H](O)C[C@]2(C)[C@H]1C(=O)COC(=O)C(C)(C)C` [Clocortolone pivalate], the ALDHbr came to 1.09 in the test on MKN45, 0.57 in the test with PANC1, 1.41 in the test on SUM159 and 0.918 in the test on T84.
